# From PubChem BioAssay AID485294 (National Center for Advancing Translational Sciences (NCATS), 2010)
# Screen size: about 370,000 compounds; about 150 (0.041%) were called active. Inconclusive means that the source gave no clear call. Such entries were picked first, then a sample of the others. Calls follow the shape of the dose curve; as a rule, active = well fitted inhibition curve with a large enough effect; inconclusive = small, poorly fitted or top-dose-only effect; inactive = flat fitted curve, though single readings scatter. No potency is given beside an inconclusive call; the fits are too rough.
# Molecular target: Beta-lactamase (Escherichia coli (strain K12)) (UniProt P00811)
# Sequence of UniProt P00811 (P00811 whole entry, looked up): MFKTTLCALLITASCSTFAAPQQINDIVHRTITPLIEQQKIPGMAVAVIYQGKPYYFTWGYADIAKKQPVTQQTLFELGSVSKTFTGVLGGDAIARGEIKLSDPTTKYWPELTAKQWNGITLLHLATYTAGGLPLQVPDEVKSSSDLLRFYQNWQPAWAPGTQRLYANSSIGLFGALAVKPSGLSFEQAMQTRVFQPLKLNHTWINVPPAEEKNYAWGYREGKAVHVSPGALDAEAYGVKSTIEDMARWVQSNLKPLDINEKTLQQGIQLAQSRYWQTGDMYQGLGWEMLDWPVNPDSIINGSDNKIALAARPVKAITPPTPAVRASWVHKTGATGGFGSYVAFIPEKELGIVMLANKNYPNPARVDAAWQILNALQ
# Assay: qHTS Inhibitors of AmpC Beta-Lactamase (assay with detergent); also: nearly all actives have a fitted effect of over 25% in size;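 as to activity change, negative = inhibition: 0% = no-compound wells and -100% = no-enzyme wells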
# Conditions: AmpC hydrolysis of nitrocefin, absorbance 480 nm, 0.01% Triton; activity change, negative = inhibition: at 114 µM (top of the series)
# Outline: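 20 mM phosphate pH 7.0 + 0.01% (detergent screen) or 0.0001% Triton X-100; 5.3 nM AmpC reagent; cpd preinc 15 min RT; nitrocefin (800 uM stock) to start; A480 q20 s × 4 min; Activity was normalised to no-enzyme and no-compound control wells.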
# Potency is read from the fitted curve at half-maximal effect; tags tell the direction and shape of the fitted curve.
SMILES,Potency,"activity change, negative = inhibition"
O=C(O)c1cccc(S(=O)(=O)Nc2ccccc2Cl)c1,"inconclusive [inhibitor, partial curve, poor fit]",–
CCn1c(=O)c2cc(C(=O)N(C)c3cc(C)ccc3C)sc2c2ccccc21,–,inactive: -4.75%
O=C(/C=C/c1ccc(Cl)c([N+](=O)[O-])c1)Nc1cccnc1,–,inactive: -0.462%
COc1cccc(CNC(=O)c2cccc(NC3=NC4CS(=O)(=O)CC4S3)c2)c1 (stereo not given),"inconclusive [inhibitor, partial curve, poor fit]",–
COc1ccc(N2CCN(C(=O)c3ccc(NS(=O)(=O)c4ccc(F)c(F)c4)cc3)CC2)cc1,"inconclusive [inhibitor, partial curve, poor fit]",–
O=[N+]([O-])c1ccc(N2CCN(c3ccccc3Cl)CC2)cn1,"inconclusive [inhibitor, single point]",–
Cc1cccc(CN2C(=O)/C(=C\c3ccc(C(=O)NCCCN4CCN(C)CC4)cc3)Oc3ccccc32)c1,–,inactive: -5.29%
Cc1nc2ccc(Cc3ccc4nc(C)[nH]c4c3)cc2[nH]1,–,inactive: -5.87%
O=S(=O)(c1ccccc1)N(CC(O)Cn1c2ccccc2c2ccccc21)c1ccccc1 (stereo not given),–,inactive: 1.47%
O=C(NC1CCCCC1)OCCN1CCN(Cc2ccccc2)CCC1=O,"inconclusive [inhibitor, full curve, poor fit]",–
C=CCOc1ccc(/C=C/C(=O)OCC(=O)Nc2c(C)n(C)n(-c3ccccc3)c2=O)cc1,–,inactive: -3.54%
O=C1c2[nH]nc(-c3ccccc3O)c2C(c2cccc(Cl)c2)N1CC1CCCO1 (stereo not given),"inconclusive [inhibitor, full curve, poor fit]",–
COc1ccc(NCc2ccc(OC)c(Cn3ccnc3)c2)c(OC)c1,–,inactive: 6.78%
C=CCNC(=O)c1c(Cl)cccc1Cl,"inconclusive [inhibitor, single point]",–
NS(=O)(=O)c1cccc(NC(=O)Nc2ccccc2)c1,–,inactive: -7.15%
Cc1ccc(NC(=O)COc2ccccc2)c(NC(=O)c2ccco2)c1,–,inactive: -19.4%
Cc1ccccc1Oc1ccc(NC(=O)C2CC=CCC2C(=O)O)cc1 (stereo not given),–,inactive: -4.01%
COc1ccc(C(=O)Nc2cccc(/C(C)=N/NC(=O)c3ccc([N+](=O)[O-])cc3)c2)cc1OC,"inconclusive [inhibitor, full curve]",–
COc1ccc(CNC(=O)[C@H](C)[C@@H]2C[C@@]2(C)[C@@H](NC(=O)OCc2ccccc2)c2ccccc2)cc1OC,"inconclusive [inhibitor, partial curve]",–
O=C1CCC(=O)N1CCCCCc1nc(-c2ccccc2)no1,"inconclusive [inhibitor, partial curve]",–
Cc1cc(C)c2c(c1)[C@@H]1C=CC[C@@H]1[C@H](c1ccc(S(=O)(=O)N3CCOCC3)cc1)N2,–,inactive: -13.2%
CCOC(=O)c1[nH]c(C)c(C(=O)Nc2ccccc2C)c1C,"inconclusive [inhibitor, partial curve]",–
COc1ccc(N2CC(NC(=O)N(C)CCC#N)CC2=O)cc1 (stereo not given),–,inactive: -1.62%
CCN(CC)C(=O)COc1ccc(/C=C(\C#N)S(=O)(=O)c2ccccc2)cc1OC,"inconclusive [inhibitor, full curve, poor fit]",–

SMILES,Potency,"activity change, negative = inhibition"
CCCC(=O)N(c1ccc2oc(-c3ccccc3)c(C(=O)OCC)c2c1)S(=O)(=O)c1ccc(C)cc1,–,inactive: 16.3%
CCOC(=O)N1CCN(c2ncnc3c2[nH]c2ccc(OC)cc23)CC1,"inconclusive [inhibitor, partial curve, poor fit]",–
O=C(/C=C/c1cccc(F)c1)NC1CCN(Cc2ccccc2)CC1,–,inactive: -12.1%
CCOc1cccc(/C=N/NC(=O)c2cccnc2)c1O,–,inactive: 4.71%
O=C(COC(=O)Cc1c[nH]c2ccccc12)Nc1c(Cl)cccc1C(F)(F)F,"inconclusive [inhibitor, full curve, poor fit]",–
CCOc1cc2c(cc1OCC)C(C(=O)O)C(c1ccc(OC)c(O)c1)N(C)C2=O (stereo not given),"inconclusive [inhibitor, single point]",–
CCN(C(=O)c1cnc(NC(C)C)cc1C(F)(F)F)c1ccc(Cl)cc1Cl,–,inactive: 7.12%
CC1SCC(=O)N(CC(=O)NC2CCCCC2)C1=O (stereo not given),"inconclusive [inhibitor, partial curve, poor fit]",–
NC(=O)NC(c1ccccc1)c1ccccc1F (stereo not given),"inconclusive [inhibitor, partial curve, poor fit]",–
O=C(NNC(=O)c1ccccc1F)c1ccc2nc[nH]c2c1,–,inactive: 5.89%
COCCN(C(=O)CSc1nc(N)cc(=O)[nH]1)c1c(N)n(Cc2ccccc2)c(=O)[nH]c1=O,"inconclusive [inhibitor, full curve, poor fit]",–
O=C(NCCC1=CCCCC1)c1cc2ccccc2oc1=O,–,inactive: 0.47%
CC1CCC(C(C)C)C(OC(=O)C[n+]2cc(-c3ccc(Cl)cc3)n3c2CCCCC3)C1 (stereo not given),"inconclusive [inhibitor, partial curve]",–
COc1cc(/C=N/OCC(=O)Nc2ccc(OC(F)F)cc2)ccc1OCc1ccccc1,–,inactive: -11.9%
COc1ccc(NC(=O)CN(C)C(=O)/C=C/c2cn(-c3ccccc3)nc2-c2cccs2)cc1,"inconclusive [inhibitor, full curve, poor fit]",–
Cc1ccc(S(=O)(=O)NC2c3cccc4cccc(c34)C2Sc2ncccn2)cc1 (stereo not given),"inconclusive [inhibitor, full curve]",–
O=C(c1ccccc1C(F)(F)F)N1CCN(S(=O)(=O)c2ccccc2)CC1,"inconclusive [inhibitor, full curve, poor fit]",–
CCn1c(CNC(=O)c2ccc(OC)cc2)nnc1SCC(=O)Nc1cccc(C)c1C,–,inactive: -2.08%
COc1ccc(/C=N/NC(=O)C(=O)/C=C2\NC3(CCCC3)Cc3ccccc32)cc1,"inconclusive [inhibitor, partial curve, poor fit]",–
COc1ccccc1CNC(=O)C(=O)NCC1OCCN1S(=O)(=O)c1ccccc1 (stereo not given),–,inactive: -2.07%
COCc1cc(C)nc(SCC(=O)Nc2ccc3[nH]c(=O)[nH]c3c2)c1C#N,"inconclusive [inhibitor, full curve, poor fit]",–
CC1CN(c2ncnc3c2cnn3-c2ccc(Cl)cc2)CC(C)O1 (stereo not given),"inconclusive [inhibitor, full curve, poor fit]",–
CCCCNC(=O)COC(=O)c1ccc(F)cc1Cl,–,inactive: -6.78%
CCc1ccc(CNC(=O)Cn2nc(-c3ccccc3)ccc2=O)cc1,"inconclusive [inhibitor, single point]",–

SMILES,Potency,"activity change, negative = inhibition"
CCN(CC)CCn1c2c(c(SCC(=O)Nc3ccc4c(c3)OCCO4)nc1=O)CCC2,–,inactive: -3.23%
Cc1cc(S(=O)(=O)NC2CCCC2)ccc1F,"inconclusive [inhibitor, full curve, poor fit]",–
CC1CN(C(=O)COC(=O)c2cc(=O)c3ccccc3o2)CC(C)O1 (stereo not given),"inconclusive [inhibitor, single point]",–
CC(C)CC(C(=O)O)N1C(=O)C2C3CC(C2C1=O)C1C(c2ccccc2)c2sc(=O)[nH]c2SC31 (stereo not given),"inconclusive [inhibitor, full curve]",–
O=Cc1cccn1Cc1ccc(Cl)cc1Cl,"inconclusive [inhibitor, full curve, poor fit]",–
CC(C)(C)c1ccc(C(O)CCCN2CCC(C(O)(c3ccccc3)c3ccccc3)CC2)cc1 (stereo not given),–,inactive: -0.287%
O=C(N/C(=C\c1cccnc1)C(=O)N1CCOCC1)c1cccc(Br)c1,"inconclusive [inhibitor, partial curve]",–
CCOC(=O)c1c(S(=O)(=O)Nc2ccc(F)cc2Cl)c(C)n(C)c1C,"inconclusive [inhibitor, full curve, poor fit]",–
Cn1cnnc1SCCC(=O)Nc1ccccc1,"inconclusive [inhibitor, partial curve, poor fit]",–
Cc1[nH]c2ccc(C(=O)N3CCN(c4ccccn4)CC3)cc2c1C,–,inactive: -4.55%
Cc1ccc(Nc2ccccc2)nn1,"inconclusive [inhibitor, full curve, poor fit]",–
COc1cccc(CN2CCSCC2)c1,"inconclusive [inhibitor, partial curve]",–
CCOC1CCCCC1NS(=O)(=O)c1ccc(Cl)cc1 (stereo not given),"inconclusive [inhibitor, partial curve, poor fit]",–
O=c1c2ccccc2nc(-c2ccccc2)n1Cc1ccc(Cl)cc1,"inconclusive [inhibitor, single point]",–
CC1CCCCC1NC(=O)c1nn(C)c2c1CS(=O)(=O)c1ccccc1-2 (stereo not given),"inconclusive [inhibitor, full curve, poor fit]",–
CCC(Nc1ccc(-c2nc(-c3ccco3)no2)cc1[N+](=O)[O-])c1ccccc1 (stereo not given),–,inactive: -2.31%
COc1ccccc1NC(=O)CSc1ccc(-c2sc(C)nc2C)nn1,–,inactive: 5.37%
C=CCN(C(=O)CCS(=O)(=O)c1cccc2nsnc12)c1ccccc1,–,inactive: -11.1%
CC(C)CC(=O)NC(NC(=S)Nc1sc2c(c1C#N)CCCC2)C(Cl)(Cl)Cl (stereo not given),–,inactive: 0.63%
O=C(N/N=C/c1nn(-c2ccccc2)cc1-c1ccccc1)c1ccncc1,"inconclusive [inhibitor, partial curve]",–
COc1ccccc1CNC(=O)Cn1c(=O)oc2cc(S(=O)(=O)N3CCC(C)CC3)ccc21,"inconclusive [inhibitor, single point]",–
COc1ccc(-c2nnc(SCC#CCO)o2)cc1OC,"inconclusive [inhibitor, partial curve, poor fit]",–
